In PubChem BioAssay AID686971 (National Center for Advancing Translational Sciences (NCATS), 2013):
In all, about 360,000 compounds went through this assay and about 7,500 (2.1%) were called active. Inconclusive means that the source gave no clear call. Such entries were picked first, then a sample of the others. Calls come from the whole dose curve; as a rule, active = well fitted cell-killing curve with a large enough effect; inconclusive = small, poorly fitted or top-dose-only effect, or effect the other way, or another doubt; inactive = no such curve, though single readings can be large or run the other way. No potency is given beside an inconclusive call; the fits are too rough.

assay: qHTS for induction of synthetic lethality in tumor cells producing 2HG: qHTS for the HT-1080-IDH1KD cell line; settings: HT-1080 IDH1 knockdown viability, ATP luminescence, 48 h; series mostly up to 46.1 µM
In short: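 Assay cells: HT-1080 with IDH1 knockdown, 750 per well, RPMI/5% FBS. Exposure: 48 h at 37 °C following 2 h pre-incubation. Read: CellTiter-Glo luminescence; fitted concentration-response, curve class assigned.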
Potency is the fitted concentration of half-maximal effect; tags give direction and shape of the fitted curve.

SMILES	Potency
O=c1[nH]c(=O)n(CCc2ccc(F)cc2)c(O)c1C=NCc1ccc2c(c1)OCO2	inactive
COc1ccc(C(=O)NN(C)c2nc(C(F)(F)F)nc3ccccc23)cc1	active: 0.0065 µM
COc1ccccc1/C=C/C(=O)c1c2c(c(C)[nH]c1=O)CCCC2	inconclusive [cytotoxic, full curve]
COc1cccc(CNc2nc3cc(-c4ccc(C)cc4)sc3c(=O)n2C)c1OC	inconclusive [cytotoxic, partial curve]
CN(C)c1ncnc2c1ncn2C1OC(CO)C(O)C1O (stereo not given)	active: 13 µM
COc1ccc(CNn2c(C)nc3ccccc3c2=O)cc1	inconclusive [cytotoxic, single point]
CCCc1cc(C(=O)NNC(=S)NC(C)c2ccccc2)cs1 (stereo not given)	inconclusive [cytotoxic, single point]
CCOc1ccc(CN2CCN(Cc3[nH]c4ccc(OC)cc4c3C)CC2CCO)cc1 (stereo not given)	inconclusive [cytotoxic, single point]
COc1ccc(C(=O)Nc2ccc(C(=O)c3ccccc3)cc2)cc1	inconclusive [cytotoxic, partial curve]
Cc1ccc(-n2c(Cc3ccccc3)n[nH]c2=S)cc1	inconclusive [cytotoxic, single point]
Cc1cc(C(=O)N/N=C/c2ccc([N+](=O)[O-])cc2)c2ccccc2n1	active: 4.61 µM
Cc1ccc2ccc(C(Nc3ccccc3)c3ccccc3)c(O)c2n1 (stereo not given)	inconclusive [cytotoxic, partial curve]
Cc1ccc(NC(=O)COC(=O)c2nn(-c3ccc(Cl)cc3)cc2O)cc1	inconclusive [cytotoxic, partial curve]
Brc1ccc(-c2nc(-c3ccccn3)no2)o1	inconclusive [cytotoxic, single point]
COC(=O)c1ccc2c(C)c(C(C)(C)O)[nH]c2c1	inactive
COC(=O)c1cc(-c2cc(OC)ccc2OC)nc2c1c(=O)n(C)c(=O)n2Cc1ccccc1	inactive
O=C(CC1C(=O)NCCN1C(=O)c1ccccc1)Nc1cc(Cl)ccc1Cl (stereo not given)	inactive
CCOC(=O)c1ccc(NC(=O)COc2ccc(CNCCO)cc2OCC)cc1	inconclusive [cytotoxic, single point]
O=C(NNC(=O)c1cnccn1)c1ccc(Cl)c(Cl)c1	inconclusive [cytotoxic, full curve]
CCCN(CC(=O)Nc1cccc(Br)c1)CC(=O)Nc1ccc(F)c(F)c1F	inconclusive [cytotoxic, single point]
